The values that follow come from the supplement of paper PMC7826260.

What all share (experiment): uncleaved DNA left, log2 of reads against the no-enzyme library (log2 ratio); higher = less cleavage (more negative = more Rep cleavage of the k-mer); sequences stand for … in CTCGTCCG…ACCGGAGA
Test [1] deals with T1, Rep nickase domain of Muscovy duck circovirus.
T1 sequence (Rep 1-111, printed without the tag): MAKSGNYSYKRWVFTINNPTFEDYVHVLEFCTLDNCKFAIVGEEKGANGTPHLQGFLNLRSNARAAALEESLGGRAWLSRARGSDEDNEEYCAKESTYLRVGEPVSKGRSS
As to the method: (§1)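 A pool of 90-nt single-stranded DNAs with seven random bases just before the constant AC of the nick site (name = the seven bases) was cut by 3 µM recombinant His6-SUMO-tagged Rep nickase domain (300 nM DNA, 50 mM HEPES pH 8.0, 50 mM NaCl, 1 mM MnCl2, 1 h, 37 °C, three replicates). Uncut DNA was amplified and sequenced.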

Test [2] has as its system T2, Rep nickase domain of banana bunchy top virus.
T2 sequence (Rep 1-94, printed without the tag): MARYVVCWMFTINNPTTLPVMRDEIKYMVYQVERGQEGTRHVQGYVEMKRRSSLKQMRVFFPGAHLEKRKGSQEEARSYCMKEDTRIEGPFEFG
As to the method:
as §1

The test system of test [3] is T3, Rep nickase domain of cabbage leaf curl virus.
T3 sequence (Rep 1-116, printed without the tag): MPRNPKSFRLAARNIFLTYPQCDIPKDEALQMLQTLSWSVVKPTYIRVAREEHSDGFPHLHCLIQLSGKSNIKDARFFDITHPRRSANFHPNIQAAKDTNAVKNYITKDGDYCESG
As to the method: as §1
The test system of test [4] is T4, Rep nickase domain of chickpea chlorotic dwarf virus.
T4 sequence (Rep 1-124, printed without the tag): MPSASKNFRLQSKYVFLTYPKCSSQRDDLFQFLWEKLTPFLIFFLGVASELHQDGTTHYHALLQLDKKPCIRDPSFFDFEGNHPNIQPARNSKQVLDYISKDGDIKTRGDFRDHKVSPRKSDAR
As to the method: as §1
The subject of test [5] is T5, Rep nickase domain of faba bean necrotic yellows virus.
T5 sequence (Rep 1-98, printed without the tag): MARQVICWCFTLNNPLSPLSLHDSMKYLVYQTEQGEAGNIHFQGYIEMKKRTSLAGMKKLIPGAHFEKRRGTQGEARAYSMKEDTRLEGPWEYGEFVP
On the procedure: as §1
The test system of test [6] is T6, Rep nickase domain of maize striate mosaic virus.
T6 sequence (Rep 1-117, printed without the tag): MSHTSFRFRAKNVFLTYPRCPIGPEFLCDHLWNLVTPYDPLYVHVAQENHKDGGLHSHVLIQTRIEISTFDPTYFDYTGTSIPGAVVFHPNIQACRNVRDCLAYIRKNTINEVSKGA
On the procedure: as §1
The test system of test [7] is T7, Rep nickase domain of porcine circovirus 2.
T7 sequence (Rep 2-116, printed without the tag): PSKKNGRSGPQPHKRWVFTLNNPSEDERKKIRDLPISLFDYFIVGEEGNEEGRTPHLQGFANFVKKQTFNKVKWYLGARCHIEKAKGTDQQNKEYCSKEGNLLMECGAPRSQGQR
On the procedure: as §1
Test [8] relates to T8, Rep nickase domain of tomato golden mosaic virus.
T8 sequence (Rep 1-124, printed without the tag): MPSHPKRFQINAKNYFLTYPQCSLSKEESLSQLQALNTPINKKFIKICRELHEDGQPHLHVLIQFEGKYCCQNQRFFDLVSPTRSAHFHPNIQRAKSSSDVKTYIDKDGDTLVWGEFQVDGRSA
On the procedure: as §1
The test system of test [9] is T9, Rep nickase domain of tomato yellow leaf curl virus.
T9 sequence (Rep 1-136, printed without the tag): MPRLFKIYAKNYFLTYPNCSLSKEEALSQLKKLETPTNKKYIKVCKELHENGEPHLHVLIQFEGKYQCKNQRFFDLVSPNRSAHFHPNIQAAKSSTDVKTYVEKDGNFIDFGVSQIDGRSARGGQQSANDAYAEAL
On the procedure: as §1
Test [10] relates to T10, Rep nickase domain of wheat dwarf virus.
T10 sequence (Rep 1-137, printed without the tag): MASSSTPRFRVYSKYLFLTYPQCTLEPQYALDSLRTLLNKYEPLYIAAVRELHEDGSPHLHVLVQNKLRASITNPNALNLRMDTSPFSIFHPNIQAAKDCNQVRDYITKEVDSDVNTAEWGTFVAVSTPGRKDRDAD
On the procedure: as §1

Some of the results follow. The data describe in vitro nicking of single-stranded DNA by Rep domains at 3 µM enzyme and 37 °C for 1 h; the strands have 90 letters, of which the middle is given. Values are log2 of uncut reads against the no-enzyme pool; the lower, the more was cut; hits are not called. Because reads are shares of a total, they shift together, so uncut sequences can rise above 0 when many others are cut.

For AGTTTCG, the “uncleaved DNA left (log2)” value in [1] was -0.00567; in test [2] it was -0.168; in [3] it was -0.889; in test [4] it was -0.32; in test [5] it was -0.123; in test [6], -1.22. Also, the “uncleaved DNA left (log2)” value in test [7] is -0.0516; in test [8] it was -0.0881; in test [9], -0.0752; in test [10], -0.116.
On to GTCGCTC, for which the “uncleaved DNA left (log2)” value is -0.0119 in test [1]; 0.142 in test [2]; 0.528 in test [3]; 1.67 in test [4]; 0.0591 in [5]; 1.6 in test [6]. The “uncleaved DNA left (log2)” value in test [7] was 0.0849; in test [8], 0.145; in [9], -0.00586; in test [10], 0.0034.
ACGAGAG: the “uncleaved DNA left (log2)” value in test [1] was 0.212; in test [2], 0.155; in test [3], -0.559; in test [4], 0.0469; in test [5], 0.169; in [6] it was -0.854. The “uncleaved DNA left (log2)” value worked out at 0.343 in test [7], 0.0901 in test [8], 0.154 in [9] and 0.097 in test [10].
Regarding AGTTGTC, the “uncleaved DNA left (log2)” value in [1] was 0.0668; in [2] it was -0.06; in [3] it was -0.17; in test [4], -0.164; in test [5] it was 0.0238; in test [6] it was -0.927. The “uncleaved DNA left (log2)” value is -0.0459 in test [7], -0.0258 in test [8], 0.0417 in test [9] and -0.116 in test [10].
In the case of CGACTTT, the “uncleaved DNA left (log2)” value in test [1] is 0.00113; in test [2] it was 0.0305; in test [3], 0.0837; in test [4] it was -0.0264; in test [5] it was -0.0144; in [6], 1.12. Also, the “uncleaved DNA left (log2)” value was -0.00671 in test [7], -0.204 in test [8], 0.0704 in test [9] and 0.0977 in test [10].
On to CCTGCTG, for which the “uncleaved DNA left (log2)” value in test [1] is 0.23; in test [2] it was -0.0544; in [3], 0.246; in [4], 0.998; in test [5], 0.00665; in test [6] it was 0.997. The “uncleaved DNA left (log2)” value is 0.171 in test [7], 0.0106 in test [8], -0.0237 in [9] and -0.0684 in test [10].
ACTTTGT: the “uncleaved DNA left (log2)” value in test [1] was -0.0954; in test [2], -0.0887; in [3], -0.379; in [4], -0.807; in [5] it was -0.0341; in [6], -1.21. Besides, the “uncleaved DNA left (log2)” value in test [7] is -0.286; in [8], 0.0504; in test [9], -0.198; in test [10] it was -0.21.
Consider CGCAACC, for which the “uncleaved DNA left (log2)” value in test [1] is -0.0219; in [2] it was 0.0137; in [3], 0.017; in test [4], -0.597; in [5], 0.0952; in test [6] it was -0.0601. Also, the “uncleaved DNA left (log2)” value in test [7] was -0.68; in test [8], -0.0418; in test [9] it was 0.0654; in [10], 0.0368.
On to CGGTCTC, for which the “uncleaved DNA left (log2)” value in test [1] was -0.0158; in test [2], -0.106; in test [3], 0.152; in test [4] it was 0.318; in test [5], -0.203; in [6], 0.774. For the same sequence, the “uncleaved DNA left (log2)” value in test [7] was -0.0391; in [8], -0.209; in test [9] it was -0.12; in test [10] it was -0.116.
Consider GAATTCT, for which the “uncleaved DNA left (log2)” value in [1] was -3.18; in [2] it was -0.131; in test [3], -3.18; in test [4] it was -2.81; in [5] it was 0.00277; in test [6], -1.98. For the same sequence, the “uncleaved DNA left (log2)” value in [7] is -3.57; in [8] it was -2.99; in [9], -0.0317; in test [10], -2.99.
In the case of TTCGTGG, the “uncleaved DNA left (log2)” value in [1] is 0.144; in test [2], 0.0303; in [3] it was 0.458; in [4], 0.705; in [5], 0.112; in [6], 0.772. Moreover, the “uncleaved DNA left (log2)” value in test [7] worked out at 0.188; in test [8], 0.103; in [9], 0.0493; in test [10], 0.135.
For the sequence TAACACT, the “uncleaved DNA left (log2)” value in test [1] was 0.0283; in [2], 0.0302; in [3], -3.62; in [4] it was -3.39; in test [5], 0.0253; in test [6], -1.62. The “uncleaved DNA left (log2)” value in [7] was -0.696; in [8] it was -0.858; in [9], -0.0493; in test [10], -2.92.
As to TTGAGGT, the “uncleaved DNA left (log2)” value in [1] is 0.174; in test [2] it was 0.0108; in [3], 0.349; in test [4], 0.829; in test [5] it was -0.026; in [6], 0.955. Moreover, the “uncleaved DNA left (log2)” value in [7] is 0.0574; in [8] it was 0.00335; in test [9], -0.0782; in test [10] it was -0.049.
GATGCAT: the “uncleaved DNA left (log2)” value in [1] is -0.0557; in test [2] it was 0.0157; in test [3] it was 0.453; in test [4], 1.28; in test [5], -0.0397; in [6], 1.35. The “uncleaved DNA left (log2)” value was 0.086 in test [7], -0.122 in test [8], 0.0165 in test [9] and 0.0943 in [10].
For TGCGATT, the “uncleaved DNA left (log2)” value in [1] was 0.0837; in test [2], 0.0288; in test [3], -0.0997; in [4], 0.16; in test [5] it was -0.00837; in test [6] it was 0.674. In addition, the “uncleaved DNA left (log2)” value in test [7] is -0.0445; in test [8], -0.00338; in test [9] it was -0.0317; in test [10] it was -0.13.
